Reference: the supplement of paper PMC9446081
Among all 39,000 compounds or so, about 220 (0.56%) showed activity. The list shows a part of the results.
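Further: static incubation at 37 °C against the wild-type strain, values averaged over two biological replicates.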

What follows are compounds tested on Escherichia coli K-12 BW25113 (assay: relative growth (OD600 normalised to plate interquartile mean) (fraction); higher = less growth inhibition, active = 0.2 or less). Conditions: 50 µM; LB; incubation time: overnight (16-24 h).
For `Cc1noc(C)c1NC(=O)N(C)C[C@@H]1Oc2ncc(C#CCC(C)C)cc2C(=O)N([C@H](C)CO)C[C@@H]1C`, the relative growth was inactive: 0.975.
`CC(C)NC(=O)N(C)C[C@@H]1Oc2ccc(NC(=O)Nc3ccc4c(c3)OCO4)cc2C(=O)N([C@@H](C)CO)C[C@@H]1C` was tested, and the relative growth was inactive: 1.03.
In the case of `C[C@@H]1CN([C@H](C)CO)C(=O)c2cccc(NC(=O)Nc3ccccc3)c2O[C@@H]1CN(C)S(C)(=O)=O`, the relative growth is reported as inactive: 0.964.
In the case of `COc1cccc(C#Cc2cnc3c(c2)C(=O)N([C@H](C)CO)C[C@@H](C)[C@@H](CN(C)C(=O)C2CCOCC2)O3)c1`, the relative growth is reported as inactive: 1.
In the case of `C[C@H](CO)N1C[C@H](C)[C@H](CN(C)C(=O)Cc2cccnc2)Oc2ncc(C#Cc3ccccc3F)cc2C1=O`, the relative growth is reported as inactive: 0.979.
In the case of `Cc1ccc(S(=O)(=O)N(C)C[C@@H]2Oc3ccc(NS(=O)(=O)c4ccc(F)cc4)cc3CC(=O)N([C@H](C)CO)C[C@H]2C)cc1`, the relative growth is reported as inactive: 0.827.
For `C[C@H]1CN([C@@H](C)CO)C(=O)c2cccc(NC(=O)Nc3ccc(F)cc3)c2O[C@@H]1CN(C)C(=O)Nc1cccc2ccccc12`, the relative growth was inactive: 0.98.
In the case of `COC(=O)C[C@@H]1CC[C@H]2[C@@H](COc3ccc(NS(=O)(=O)c4ccccc4Cl)cc3C(=O)N2C)O1`, the relative growth is reported as inactive: 1.01.
In the case of `CCCCC(O)c1ccccc1` (configuration not stated), the relative growth is reported as inactive: 0.973.
`C[C@H](CO)N1C[C@H](C)[C@@H](CN(C)C(=O)NC2CCCCC2)Oc2ccc(NS(=O)(=O)c3cn(C)cn3)cc2CC1=O` was tested, and the relative growth was inactive: 1.
`O=C(C[C@@H]1CC[C@H]2[C@@H](COC[C@H](O)CN2C(=O)Nc2cccc(Cl)c2)O1)NCc1ccccc1F` was tested, and the relative growth was inactive: 0.957.
For `CCCCCCCCCCCCCCCC(=O)OCC(O)C1OC(=O)C(O)=C1O` (configuration not stated), the relative growth was inactive: 0.882.
With `COC(=O)[C@@H](N)c1cccc(OC)c1` the relative growth was inactive: 0.992.
For `COc1ccc(S(=O)(=O)Nc2ccc3c(c2)C(=O)N([C@@H](C)CO)C[C@H](C)[C@@H](CN(C)S(=O)(=O)c2ccc(F)cc2)O3)cc1`, the relative growth was inactive: 1.
In the case of `O=C(O)c1nc(-c2cnccn2)no1`, the relative growth is reported as inactive: 1.02.
With `CC1(C)OC(=O)C(OCC2CC2)=C1c1ccc(S(C)(=O)=O)cc1` the relative growth was inactive: 0.971.
`CCO/C(O)=C1/C(=O)CN(C)C1=O` was tested, and the relative growth was inactive: 0.962.
`Cc1ccc(S(=O)(=O)Nc2ccc3c(c2)C(=O)N([C@@H](C)CO)C[C@H](C)[C@H](CN(C)Cc2ccc(C(=O)O)cc2)OCCCC[C@@H](C)O3)cc1` was tested, and the relative growth was inactive: 1.
With `CC(=O)N[C@H](Cc1ccc2ccccc2c1)C(=O)N[C@H](Cc1ccc(Cl)cc1)C(=O)N[C@H](Cc1cccnc1)C(=O)N[C@@H](CO)C(=O)N[C@@H](Cc1ccc(O)cc1)C(=O)N[C@H](CCCNC(N)=O)C(=O)N[C@@H](CC(C)C)C(=O)N[C@@H](CCCNC(=N)N)C(=O)N1CCC[C@H]1C(=O)N[C@H](C)C(N)=O` the relative growth was inactive: 0.976.
For `C[C@H](CO)N1C[C@H](C)[C@H](CN(C)Cc2ccccc2F)Oc2cc(C#CC3CC3)ccc2S1(=O)=O`, the relative growth was inactive: 0.916.
With `C[C@@H]1CN([C@@H](C)CO)C(=O)c2cccc(NC(=O)Nc3ccccc3)c2O[C@H]1CN(C)C(=O)Nc1ccc(C(F)(F)F)cc1` the relative growth was inactive: 0.986.
For `O=c1cc(-c2ccccc2)oc2c(O)c(O)ccc12`, the relative growth was inactive: 0.954.
With `C[C@H](CO)N1C[C@H](C)[C@@H](CN(C)C(=O)N[C@H](C)c2ccccc2)OCc2ccccc2-c2ccccc2C1=O` the relative growth was inactive: 0.986.
`CCCCOCCOCCOCc1cc2c(cc1CCC)OCO2` was tested, and the relative growth was inactive: 0.859.
In the case of `C[C@@H]1CCCCO[C@@H](CN(C)S(=O)(=O)c2cccs2)[C@H](C)CN([C@H](C)CO)C(=O)c2cc(NC(=O)Nc3ccc(C(F)(F)F)cc3)ccc2O1`, the relative growth is reported as inactive: 1.07.
For `CC(C)NC(=O)N(C)C[C@@H]1Oc2c(NS(=O)(=O)c3ccc(F)cc3)cccc2C(=O)N([C@H](C)CO)C[C@H]1C`, the relative growth was inactive: 1.
In the case of `C[C@@H]1CN([C@@H](C)CO)C(=O)c2cc(NC(=O)C3CCCCC3)ccc2O[C@@H](C)CCCCO[C@@H]1CN(C)C(=O)C1CCCCC1`, the relative growth is reported as inactive: 0.966.
For `Cc1ccc(S(=O)(=O)N(C)C[C@H]2Oc3c(NC(=O)Nc4ccc(C(F)(F)F)cc4)cccc3C(=O)N([C@@H](C)CO)C[C@H]2C)cc1`, the relative growth was inactive: 1.02.
`C=CCC[C@H](Cc1ccc(F)cc1)C(=O)OC[C@@H](Cc1c[nH]c2ccccc12)NC(=O)[C@H](CC=C)CC(=O)N[C@@H](CO)Cc1ccccc1` was tested, and the relative growth was inactive: 1.03.
`C[C@@H]1CCCCO[C@H](CN(C)Cc2ccc3c(c2)OCO3)[C@@H](C)CN([C@@H](C)CO)C(=O)c2cc(NC(=O)C3CCCCC3)ccc2O1` was tested, and the relative growth was inactive: 1.02.
For `COc1ccc(NC(=O)Nc2ccc3c(c2)C(=O)N([C@H](C)CO)C[C@H](C)[C@@H](CN(C)Cc2ccc(C(=O)O)cc2)OCCCC[C@H](C)O3)cc1`, the relative growth was inactive: 0.979.
For `C[C@H]1CN([C@@H](C)CO)C(=O)c2c(c3ccccc3n2C)-c2ccccc2CO[C@H]1CN(C)Cc1ccc(Cl)c(Cl)c1`, the relative growth was inactive: 0.998.
`C[C@H](CO)N1C[C@H](C)[C@@H](CN(C)Cc2cncnc2)Oc2ncc(C#C[C@@H](C)O)cc2C1=O` was tested, and the relative growth was inactive: 0.973.
In the case of `COc1ccc(S(=O)(=O)N(C)C[C@H]2Oc3ccc(NC(=O)CCCN(C)C)cc3CC(=O)N([C@@H](C)CO)C[C@H]2C)cc1`, the relative growth is reported as inactive: 0.994.
With `Cc1cccc2sc(NC(=O)c3ccc(C(C)(C)C)cc3)nc12` the relative growth was inactive: 0.992.
`C[C@@H]1CN([C@@H](C)CO)C(=O)c2cccc(NC(=O)C3CC3)c2O[C@@H]1CN(C)Cc1ccc2c(c1)OCO2` was tested, and the relative growth was inactive: 0.993.
With `Cc1noc(C)c1NC(=O)Nc1cccc2c1O[C@H](CN(C)Cc1ccc(C(F)(F)F)cc1)[C@@H](C)CN([C@@H](C)CO)C2=O` the relative growth was inactive: 0.978.
`C[C@@H]1CN([C@H](C)CO)C(=O)c2cc(NC(=O)Cc3ccccc3)ccc2O[C@@H]1CN(C)Cc1ccc(Cl)c(Cl)c1` was tested, and the relative growth was inactive: 1.02.
For `CCCN1C(=O)C[C@@H](N2CCOCC2)C1=O`, the relative growth was inactive: 1.01.
For `C[C@H]1CN([C@@H](C)CO)C(=O)CCCn2cc(nn2)CO[C@@H]1CN(C)C(=O)Nc1ccc(C(C)(C)C)cc1`, the relative growth was inactive: 1.01.
In the case of `Cc1ccc(-c2ccc3c(c2)O[C@H](CN(C)C(=O)NC(C)C)[C@H](C)CN([C@H](C)CO)S3(=O)=O)cc1`, the relative growth is reported as inactive: 1.03.
For `C[C@@H]1CN([C@@H](C)CO)C(=O)c2cc(C#CC3CCCC3)cnc2O[C@@H]1CN(C)C(=O)Cc1ccccn1`, the relative growth was inactive: 1.02.
For `CC(=O)Oc1ccccc1C(=O)Nc1ncc([N+](=O)[O-])s1`, the relative growth was inactive: 0.526.
`COC(=O)c1cc(OC)c(OC)c(OC)c1` was tested, and the relative growth was inactive: 1.09.
`COC(=O)C[C@H]1CC[C@@H]2[C@H](COC[C@H](O)CN2S(=O)(=O)c2cn(C)cn2)O1` was tested, and the relative growth was inactive: 0.945.
`C[C@@H]1CN([C@@H](C)CO)C(=O)c2cc(NC(=O)Nc3cccc4ccccc34)ccc2O[C@@H](C)CCCCO[C@@H]1CN(C)C(=O)NC1CCCCC1` was tested, and the relative growth was inactive: 1.03.
In the case of `COc1ccc(S(=O)(=O)Nc2ccc3c(c2)C(=O)N([C@H](C)CO)C[C@@H](C)[C@@H](CN(C)S(C)(=O)=O)O3)cc1`, the relative growth is reported as inactive: 1.
With `C[C@@H]1CN([C@@H](C)CO)C(=O)Cc2cc(NC(=O)CCC(F)(F)F)ccc2O[C@H]1CN(C)S(=O)(=O)c1cn(C)cn1` the relative growth was inactive: 0.977.
In the case of `Cn1cc(-c2[nH]c3cc(NC(=O)[C@H](N)C4CCCCC4)cc4c3c2C=NNC4=O)cn1`, the relative growth is reported as active: 0.161.
In the case of `C[C@@H]1CN([C@@H](C)CO)C(=O)c2cc(NC(=O)c3ccncc3)ccc2O[C@@H](C)CCCCO[C@H]1CN(C)Cc1ccccc1`, the relative growth is reported as inactive: 1.
`O=C(C[C@@H]1C=C[C@H](NS(=O)(=O)c2ccccc2F)[C@@H](CO)O1)NCCCN1CCOCC1` was tested, and the relative growth was inactive: 0.979.
In the case of `COCC(=O)N(C)C[C@@H]1Oc2cc(C#CCC3CCCC3)ccc2S(=O)(=O)N([C@H](C)CO)C[C@H]1C`, the relative growth is reported as inactive: 1.
`C[C@@H]1CN([C@@H](C)CO)C(=O)c2cc(NS(C)(=O)=O)ccc2O[C@@H]1CN(C)S(C)(=O)=O` was tested, and the relative growth was inactive: 1.02.
With `C[C@H](CO)N1C[C@H](C)[C@H](CN(C)CC2CC2)OCCCC[C@H](C)Oc2ccc(NC(=O)NC3CCCCC3)cc2C1=O` the relative growth was inactive: 0.994.
`c1cnc2nc[nH]c2c1` was tested, and the relative growth was inactive: 1.
`CCCN(C)C[C@H]1OCCCC[C@@H](C)Oc2ccc(NC(=O)Nc3ccc(F)cc3)cc2C(=O)N([C@H](C)CO)C[C@@H]1C` was tested, and the relative growth was inactive: 1.
For `C[C@H](CO)N1C[C@H](C)[C@@H](CN(C)S(=O)(=O)c2ccc(Cl)cc2)OCCCC[C@H](C)Oc2ccc(NS(=O)(=O)c3ccc(F)cc3)cc2C1=O`, the relative growth was inactive: 0.976.
In the case of `C[C@@H]1CCCCO[C@@H](CN(C)C(=O)NC2CCCCC2)[C@H](C)CN([C@@H](C)CO)C(=O)c2cc(NC(=O)CCC(F)(F)F)ccc2O1`, the relative growth is reported as inactive: 0.99.
In the case of `C[C@@H]1CCCCO[C@H](CN(C)C(=O)c2ccccc2)[C@@H](C)CN([C@@H](C)CO)C(=O)c2cc(NC(=O)CCC(F)(F)F)ccc2O1`, the relative growth is reported as inactive: 1.
In the case of `C[C@@H]1CN([C@H](C)CO)C(=O)Cc2cc(NS(=O)(=O)c3ccccc3)ccc2O[C@H]1CN(C)Cc1ccc(Cl)c(Cl)c1`, the relative growth is reported as inactive: 1.01.
For `Cn1cnc(S(=O)(=O)N2C[C@H](O)COC[C@@H]3O[C@@H](CC(=O)N4CCN(c5ccccc5)CC4)CC[C@H]32)c1`, the relative growth was inactive: 1.01.
`C[C@H](CO)N1C[C@H](C)[C@@H](CN(C)C(=O)C2CCCCC2)OCCCC[C@H](C)Oc2ccc(NC(=O)c3ccccc3)cc2C1=O` was tested, and the relative growth was inactive: 0.982.
